Reference: article PMC4336329 (PLoS ONE, 2015)
Screen size: about 310,000 compounds; about 14,000 (4.5%) showed an effect of 50% or more. The effect is printed as a negative number. This is one part of the list.

Molecular target: human ether-à-go-go-related gene (hERG) potassium channel (human, UniProt Q12809)
Assay: primary screen, population patch clamp on CHO cells stably expressing hERG
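Further: peak tail current of the secondary pulse compared with the same well before compound.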

Sequence of human ether-à-go-go-related gene (hERG) potassium channel (Q12809 whole entry, looked up): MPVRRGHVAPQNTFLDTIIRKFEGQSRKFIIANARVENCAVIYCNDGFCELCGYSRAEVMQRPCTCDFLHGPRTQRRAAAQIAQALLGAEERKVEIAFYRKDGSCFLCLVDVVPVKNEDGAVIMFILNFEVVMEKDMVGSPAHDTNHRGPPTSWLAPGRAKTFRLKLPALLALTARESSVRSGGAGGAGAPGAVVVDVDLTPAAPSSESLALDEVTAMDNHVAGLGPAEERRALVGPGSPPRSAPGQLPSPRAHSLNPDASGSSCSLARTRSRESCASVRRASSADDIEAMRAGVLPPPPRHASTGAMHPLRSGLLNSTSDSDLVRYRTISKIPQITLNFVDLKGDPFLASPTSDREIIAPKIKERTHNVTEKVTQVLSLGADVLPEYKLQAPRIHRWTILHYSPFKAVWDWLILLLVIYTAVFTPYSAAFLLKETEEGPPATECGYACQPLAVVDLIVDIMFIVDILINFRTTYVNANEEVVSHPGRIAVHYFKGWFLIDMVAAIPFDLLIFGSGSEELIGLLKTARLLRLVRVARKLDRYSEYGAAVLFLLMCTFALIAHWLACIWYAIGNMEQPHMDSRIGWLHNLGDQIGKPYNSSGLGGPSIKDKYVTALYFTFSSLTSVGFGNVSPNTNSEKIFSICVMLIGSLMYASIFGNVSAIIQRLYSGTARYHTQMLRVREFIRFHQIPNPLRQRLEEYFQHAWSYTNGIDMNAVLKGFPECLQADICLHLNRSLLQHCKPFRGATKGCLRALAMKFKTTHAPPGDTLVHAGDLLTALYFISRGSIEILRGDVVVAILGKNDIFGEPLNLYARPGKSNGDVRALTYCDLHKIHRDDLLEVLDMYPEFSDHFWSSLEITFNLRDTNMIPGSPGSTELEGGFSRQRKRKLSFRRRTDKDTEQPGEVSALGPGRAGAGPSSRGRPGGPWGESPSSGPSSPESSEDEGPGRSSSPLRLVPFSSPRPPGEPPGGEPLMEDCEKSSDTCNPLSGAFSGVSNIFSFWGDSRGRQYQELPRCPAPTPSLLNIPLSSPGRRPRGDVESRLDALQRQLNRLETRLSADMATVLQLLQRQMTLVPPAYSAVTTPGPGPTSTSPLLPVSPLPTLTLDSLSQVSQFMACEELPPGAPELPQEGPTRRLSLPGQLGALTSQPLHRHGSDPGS

Row | Structure (SMILES) | hERG current change (%, negative = inhibition) at 10uM
1 | CC1(NC(=O)CC[N+](C)(C)CCO)CS(=O)(=O)CC1S(=O)(=O)[O-] (stereo not drawn) | -4.09%
2 | CCCOC(=O)c1ccc(NC(=O)c2c(Cl)ccc(Cl)c2OC)cc1 | 0.998%
3 | COc1ccc(NS(=O)(=O)c2ccc3c(c2)N(C(C)=O)CC(C)S3)c(OC)c1 (stereo not drawn) | 0.3%
4 | Cc1[nH]cc(Br)c(=O)c1Oc1ncc(C(F)(F)F)cc1Cl | 13.2%
5 | Cc1noc(C)c1CN(C(=S)NC1CC1)c1ccccc1 | -3.32%
6 | COc1ccc(N=C(C)C2=C(O)COC2=O)cc1 | 4.41%
7 | COC(=O)C1=C(c2ccc3ccccc3c2)C[C@@H]2CC[C@H]1N2C(=O)N1CCCCC1 | 2.21%
8 | COC(=O)C1=C(C)NC(=O)CC1c1ccccc1OC (stereo not drawn) | 2.49%
9 | COc1ccc(Cc2nnc(N/N=C/c3ccc(O)cc3)[nH]c2=O)cc1OC | -8.51%
10 | Cc1nn(C)c(Cl)c1C(N)=O | 23.3%
11 | Cc1ccc(/C=C/C(=O)N2CCN(Cc3ccccc3)CC2)o1 | -0.893%
12 | CCN(CC)CCN1C(=O)C(O)=C(C(C)=O)C1c1ccccc1[N+](=O)[O-] (stereo not drawn) | 11.7%
13 | Cc1ccc(C(C)C)c(OCC(=O)c2c(O)c3ccccc3oc2=O)c1 | -1.4%
14 | Cc1ccc(NC(=O)C2C3CCCC2C3c2ccccc2)cc1 (stereo not drawn) | 15.3%
15 | COc1ccc(/C=C/C(=O)c2ccc3ccccc3c2O)cc1CN1CCOCC1 | 2.19%
16 | CNC(=O)c1ccc(NC(=O)c2cc(S(=O)(=O)N3CCOCC3)ccc2N2CCCC2)cc1 | 7.71%
17 | COC(=O)c1ccc(CN2CCC(CO)(Cc3ccccc3Cl)CC2)cc1 | -64.8%
18 | Cn1c(=O)c2c(nc(SCc3ccccc3)n2Cc2ccc(Cl)cc2)n(C)c1=O | 5.98%
19 | COc1ccc([C@H]2CC(=O)C=C(c3cccc(Br)c3)C2)cc1 | -1.14%
20 | COC(=O)c1ccc(NC(C)C(=O)OC)c([N+](=O)[O-])c1 (stereo not drawn) | 4.81%
21 | Cc1ccccc1C(=O)NC(=S)Nc1ccc(Cc2ccncc2)cc1 | 10.4%
22 | COc1cc(C(N)=O)cc(Br)c1OC | -12.5%
23 | CN1CCN(c2nc3c(c(=O)[nH]c(=O)n3C)n2Cc2ccc(Cl)cc2)CC1 | -15.5%

Row | Structure (SMILES) | hERG current change (%, negative = inhibition) at 10uM
24 | Cc1ccc(S(=O)(=O)NC(CC(=O)O)c2ccco2)cc1 (stereo not drawn) | 8.31%
25 | O=S(=O)(CC(c1ccccc1)N1CCCCC1)c1ccc(Cl)cc1 (stereo not drawn) | -0.713%
26 | CCOC(=O)c1c(N)nn(C(=O)CC)c1-c1ccccc1 | 12.7%
27 | C/C(=N/Nc1cc(-c2ccccc2)nc(-c2ccccc2)n1)c1ccc(O)cc1 | 12.1%
28 | Cc1cccc(C(=O)NCC(=O)N(C)CC(=O)Nc2ccc(N3CCOCC3)cc2)c1 | -7.67%
29 | CC(C)C(=O)NNC(=O)c1csc(-c2cccs2)n1 | 0.646%
30 | CCN(CC)CCN(Cc1cc2ccc(C)c(C)c2[nH]c1=O)C(=S)NCc1ccco1 | -51.4%
31 | CCOC(=O)c1sc(NC(=O)COC(=O)c2ccco2)nc1C | 0.15%
32 | O=C(COc1cc(Cl)c(Cl)cc1Cl)NC(=O)Nc1ccc2c(c1)OCCO2 | -0.056%
33 | CCO[C@@H]1OC(C(N)=O)=C[C@H](c2ccc(Br)cc2)[C@H]1CCCO | 1.95%
34 | CN1CC=C2C(C#N)=C(N)C(C#N)(C#N)[C@H](c3cccc(Cl)c3)C2C1 (stereo partly drawn) | -6.67%
35 | C=CCSc1n[nH]c(-c2cccs2)n1 | 14.4%
36 | CCOC(=O)/C(C#N)=C/c1cccc([N+](=O)[O-])c1 | 25%
37 | O=C(O)/C=C\C(=O)Nc1ccccc1F | 16%
38 | O=C(Nc1nc(-c2ccc(Cl)cc2)cs1)NC1CCCCC1 | -0.868%
39 | COC(=O)CCC(=O)OC1(C)C(=O)C=C2C=C(C3CC3)N(CCN3CCOCC3)C=C2C1=O (stereo not drawn) | 9.64%
40 | COc1ccc(NC(=O)NCc2cccnc2)cc1OC | 13.4%
41 | COc1cccc(-n2c(=S)[nH]c3c(oc4ccccc43)c2=O)c1 | 19.2%
42 | CCCC(=O)Nc1cc(-c2nn(C)c(=O)c3ccccc23)ccc1OC | -31.8%
43 | Cc1cccc(N2CCN(C(=O)C34CC5CC(CC(C5)C3)C4)CC2)c1C | 11.3%
44 | C#CCOCCOCCOCCNc1nc(N2CCN(C(=O)Cn3cc(CCCC[NH3+])nn3)CC2)nc(N2CCN(C(=O)[C@H]([C@@H](C)CC)n3cc(CCC[NH+]=C(N)N)nn3)CC2)n1.[Cl-] | 13.5%
45 | COc1ccc(C(=O)Nc2ccccc2N2CCOCC2)cc1S(=O)(=O)N1CCCC1 | -24.5%
46 | C/C(=N\NC(=O)c1ccco1)c1ccc(NC(=O)c2cccs2)cc1 | 5.09%

Row | Structure (SMILES) | hERG current change (%, negative = inhibition) at 10uM
47 | CCN(CC)CCNC(=O)c1ccc(CS(=O)(=O)c2ccccc2C)o1 | -24%
48 | Cc1ccsc1/C=N/n1cnnc1 | 9.58%
49 | CCOC(=O)c1c(NC(=O)Cn2cnc([N+](=O)[O-])n2)sc(C)c1C | 11%
50 | O=C(CSc1nnnn1Cc1ccccc1)c1ccccc1F | -21.3%
51 | CC1(C)CC(=O)C=C(NCCN2CCN(C(=O)Nc3ccccc3)CC2)C1 | -6.06%
52 | Cc1cc(F)ccc1NC(=O)Nc1ccc2c(c1)OCO2 | 22.3%
53 | CN(C)c1nc(N/N=C/c2c[nH]c3ccccc23)nc(N2CCOCC2)n1 | 8.45%
54 | COc1ccccc1OCCNC(=O)Cc1ccc(S(=O)(=O)N2CCOCC2)s1 | -5.38%
55 | COc1ccc(-c2cc(-c3ccc(O)cc3)nc(N)c2C#N)cc1 | 3.91%
56 | O=C(COc1ccc(Cl)cc1)Nc1ccc2c(c1)CCC2 | 0.759%
57 | CC(C)(C)C1CCC(=NNC(=O)c2ccco2)CC1 (stereo not drawn) | 13.3%
58 | CCN(CC)CCCNc1cc2n(c(=O)n1)CCc1cc(OC)c(OC)cc1-2 | -7.63%
59 | CCC[C@H](CN[C@@H](CNC)[C@H](C)CC)NCCc1cc(C(F)(F)F)cc(C(F)(F)F)c1 | -20.8%
60 | CC(C)CC(=O)Nc1ccc(Nc2ccccc2)cc1 | -25.3%
61 | CCOC(=O)C1=C(N)Oc2cc(O)ccc2C1c1ccccc1 (stereo not drawn) | 17.3%
62 | CCc1cccc(NC(=S)N(CCOC)C2CCN(C(C)=O)CC2)c1 | -8.26%
63 | Cc1ccc(-c2cnn(-c3ccccc3)c2N)cc1 | 7.66%
64 | C=CCNC(=O)c1onc(CSc2ccccc2C)c1C(=O)O | -14.3%
65 | OC12CCCCC1C(c1ccccc1)NCC2 (stereo not drawn) | 3.01%
66 | COc1ccc(N2CCN(C(=O)COc3cccc4ccccc34)CC2)cc1 | -28.3%
67 | Cc1nc2ccc(NS(=O)(=O)c3ccccc3Cl)cc2s1 | 4.43%
68 | COc1ccc(/C=N/Nc2nc(Nc3ccccc3)nc(N3CCCC3)n2)cc1[N+](=O)[O-] | 3.37%
69 | Cn1nc(C2CC2)cc1NC(=O)CC(CC(=O)O)c1ccccc1 (stereo not drawn) | 9.38%

Row | Structure (SMILES) | hERG current change (%, negative = inhibition) at 10uM
70 | COC(=O)c1[nH]c2ccc(C)cc2c1NC(=O)CN1CCCc2ccccc21 | -1.47%
71 | c1ccc(Cn2nnc3cnccc32)cc1 | 2.3%
72 | C/C(=N\NC(=O)c1ccc(NS(=O)(=O)c2cccs2)cc1)c1ccc(Cl)cc1 | -16.5%
73 | Cc1ccc(Cl)cc1NC(=O)CCNC(=O)N1CC(=O)Nc2ccccc21 | 7.61%
74 | COCCN1C(=O)C(=O)/C(=C(/O)c2ccc(S(=O)(=O)N3CCOCC3)cc2)C1c1ccc(O)c(OC)c1 (stereo not drawn) | 17.1%
75 | CN(CC(=O)Nc1cccc(F)c1)C(=O)c1ccc(-c2cccc(C(F)(F)F)c2)o1 | 12.3%
76 | CC(=O)c1cccc(NC(=O)CNC(=O)c2sc3ccccc3c2Cl)c1 | -1.2%
77 | CCOC(=O)NN1C(=O)c2ccccc2NC1c1ccccc1O (stereo not drawn) | 14.4%
78 | Cc1ccc(C2=NS(=O)(=O)N(C)C(C(=O)NC(C)c3ccccc3)=C2)cc1 (stereo not drawn) | -4.18%
79 | O=C(c1ccccc1)c1c[nH]cc1-c1ccccc1 | 0.144%
80 | Cc1cccc(NC(=O)CSc2nnc([C@@H](N)Cc3ccccc3)o2)c1C.Cl | 7.45%
81 | Cc1cc(NC(=O)COC(=O)C2COc3ccccc3O2)no1 (stereo not drawn) | 15.9%
82 | CCCCn1c(N)c(N(Cc2ccccc2OC)C(=O)CCC(C)C)c(=O)[nH]c1=O | -24.7%
83 | COc1ccc(C(=O)c2cnc(C(C)C)n2C)cc1 | 2.51%
84 | Cc1c(C=O)c2ccccc2n1CC(=O)O | 30.1%
85 | CCCCC(=O)Nc1ccc(C(=O)NCCc2ccccc2)cc1 | -9.95%
86 | CC(=O)OCCNC(=O)c1cccnc1 | 6.8%
87 | COC(=O)c1nnc(-c2ccccc2)c(-c2ccccc2)n1 | 1.41%
88 | CCCOc1nc2ccccc2cc1/C=C/C(=O)O | 11.8%
89 | CC(OC(=O)CNC(=O)c1ccco1)C(=O)N(C)c1ccccc1 (stereo not drawn) | 6.75%
90 | CC(C)[C@H](NC(=O)c1ccccc1F)C(=O)Nc1nc2c(s1)CCCC2 | -10.5%
